Measurements taken from the supplement of paper PMC10338343.
± gives the standard deviation. In all, about 3,700 sequences were measured (“pre-steady-state target cleavage rate”: median about 0.02, highest 2% from about 0.23 on). The entries are a selection whose mix differs from that of the whole data set.

Each sequence was assayed on MILI (PIWIL2) piRISC loaded with Kctd7 piRNA (26 nt) (assay: pre-steady-state target cleavage rate (min^-1); MIWI and MILI are mouse PIWI proteins and EfPiwi is from a freshwater sponge; tags in brackets are library labels; higher = faster piRNA-guided slicing of the target). Conditions: guide: Kctd7 piRNA 5'p-UGUUAAUCUCUCAGAGAAGGUGACAG; auxiliary factor: 500 nM mouse GTSF1.
Method: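 Cleave-'n-Seq: a library of target RNAs (target site embedded in constant flanks, ACAGCATTCCGCGTTAGTGATATCCG... 5' flank; DNA-blocked outside the site) at 0.1 nM was incubated with 1 nM active mouse MILI or MIWI piRISC (synthetic 5'-monophosphorylated piRNA guide) with or without 500 nM mouse GTSF1 at 33 °C for 1 min to 16 h. Uncleaved targets were sequenced and normalised to non-target controls, and the pooled three trials were fitted to a burst-and-steady-state model to give the pre-steady-state cleavage rate (min^-1; k3 is constrained to at most 1e-4). Sequence is the target site only; target names encode pairing extent (gX:gY) and contiguous / 1-mismatch / 2-mismatch / bulge geometry. Fits with R² ≤ 0 are excluded.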
In the case of UAGUGACACACCUUCUCUGAGAGAUUACACA, the “pre-steady-state target cleavage rate” value is reported as 0.154 ± 0.041.
UAGUGUGUCAGCUUCUCAGAGAGAUUAACA was tested, and the “pre-steady-state target cleavage rate” value was 0.0938 ± 0.0081.
UAGUGACUCCCUUCUCUGAGAGAUUAACA was tested, and the “pre-steady-state target cleavage rate” value was 0.127 ± 0.013.
In the case of UAGUGACAGUGCUUGUCAGAGAGAUUAACA, the “pre-steady-state target cleavage rate” value is reported as 0.00497 ± 0.0031.
UAGUGACUCACCUUCUCUGACAGAUUUACA was tested, and the “pre-steady-state target cleavage rate” value was 0.0254 ± 0.0083.
With UAGUGACUCACCUUCUCUGAGAGAAUAACA the “pre-steady-state target cleavage rate” value was 0.0893 ± 0.022.
In the case of UAGUCUGUCACCUUCUCUGAGAGAUUAACCA, the “pre-steady-state target cleavage rate” value is reported as 0.196 ± 0.0085.
In the case of UAGUGACAGACCAAGUCUGAGAGAUUAACA, the “pre-steady-state target cleavage rate” value is reported as 0.022 ± 0.0056.
In the case of UAGUGUGUCACCAACUCUGAGAGAUUUUGA, the “pre-steady-state target cleavage rate” value is reported as 0.00551 ± 0.0041.
In the case of UAGUGACAGACCUUCUCUGAGAGAUUAGACA, the “pre-steady-state target cleavage rate” value is reported as 0.0711 ± 0.018.
In the case of UAGUGUGUGACCAUCUCUGAGAGAUUAACA, the “pre-steady-state target cleavage rate” value is reported as 0.137 ± 0.011.
With UAGUGACACACCUUCUCAGACAGAUUAACA the “pre-steady-state target cleavage rate” value was 0.0174 ± 0.0053.
With UAGUGUGUCACCAUCUCUGAGAGAUUAACA the “pre-steady-state target cleavage rate” value was 0.163 ± 0.01.
In the case of UAGUGAGUCCACCUUCUCUGAGAGAUUAACA, the “pre-steady-state target cleavage rate” value is reported as 0.165 ± 0.017.
UAGUGUGUCACCUUCUCUCAGAGAUUAAGA was tested, and the “pre-steady-state target cleavage rate” value was 0.0468 ± 0.018.
For UAGUGACUCACGUUCUCUGAGAGAUUAUCA, the “pre-steady-state target cleavage rate” value was 0.0475 ± 0.0092.
In the case of UAGUGUGUCACCUUCUCAGAGAGAUUAACA, the “pre-steady-state target cleavage rate” value is reported as 0.144 ± 0.016.
With UAGUGUGUCACCUUCUCUGAGAGCAUUAACA the “pre-steady-state target cleavage rate” value was 0.17 ± 0.022.
With “UAGUGACAGUCCUUCUCUGAGAGAUUAACG [g2:g20:cont:t1G]” the “pre-steady-state target cleavage rate” value was 0.121 ± 0.019.
For UAGUGACACACCAACUCUGAGAGAUUAAGA, the “pre-steady-state target cleavage rate” value was 0.018 ± 0.0037.
For UAGUGACAGUCCUUUCUCUGAGAGAUUAACA, the “pre-steady-state target cleavage rate” value was 0.124 ± 0.014.
With UAGUGACUCACCUUCUCUGUCAGAUUAACA the “pre-steady-state target cleavage rate” value was 0.00928 ± 0.0028.
With UAGUGACUCACCUUCUCUGAGAUGAUUAACA the “pre-steady-state target cleavage rate” value was 0.0709 ± 0.0067.
With UAGUGACAGUGGAUCUCUGACUGAUUAACA the “pre-steady-state target cleavage rate” value was under 0.0001.
UAGUGUGUCACGAACUCUGAGAGAUUAACA was tested, and the “pre-steady-state target cleavage rate” value was 0.0905 ± 0.0059.
For UAGUGACUCACCUUCUGAGAGAGAUUUUGA, the “pre-steady-state target cleavage rate” value was 0.00731 ± 0.0036.
With UAGUGACAGUCCAUCUCUGAGAGAUUAACA the “pre-steady-state target cleavage rate” value was 0.027 ± 0.0065.
For UAGUCUGUGACCUUCUCUGAGAGAUUAACA, the “pre-steady-state target cleavage rate” value was 0.181 ± 0.0086.
With UAGUGACUCACCAUCUCUGACAGAUUAACA the “pre-steady-state target cleavage rate” value was 0.026 ± 0.0045.
For UAGUCUGUCACCUUCGCUGAGAGAUUAACA, the “pre-steady-state target cleavage rate” value was 0.205 ± 0.026.
With UAGUGACACACCUUCACUGACAGAUUAACA the “pre-steady-state target cleavage rate” value was 0.0777 ± 0.021.
For UAGUGAGUGACCUUCUCUGACAGAUUAACA, the “pre-steady-state target cleavage rate” value was 0.0284 ± 0.0068.
For UAGUGACUCACCUUCUCUGACAGAUUAACA, the “pre-steady-state target cleavage rate” value was 0.0785 ± 0.013.
For UAGUGUGUCACCUUCUCUGAGGAUUAACA, the “pre-steady-state target cleavage rate” value was 0.071 ± 0.024.
In the case of UAGUGAGUCUCCUUCUCUGAGAGAUUAUCA, the “pre-steady-state target cleavage rate” value is reported as 0.0134 ± 0.0057.
For UAGUCUGUCACCUUUCUGAGAGAUUAACA, the “pre-steady-state target cleavage rate” value was 0.0704 ± 0.013.
For UAGUGACAGACCUUCUCUUAGAGAUUAACA, the “pre-steady-state target cleavage rate” value was 0.0426 ± 0.0085.
With UAGUGACACACGUUCUCUCAGAGAUUAACA the “pre-steady-state target cleavage rate” value was 0.037 ± 0.008.
For UAGUGACAGUGGGUCUCUGAGAGAUUAACA, the “pre-steady-state target cleavage rate” value was 0.00431 ± 0.0013.
With UAGUGACAGAGCUUCUCUGAGAGAUUAACA the “pre-steady-state target cleavage rate” value was 0.0453 ± 0.0081.
For UAGUGACUCACCUUCUCAGAGAGAUUUACA, the “pre-steady-state target cleavage rate” value was 0.0709 ± 0.014.
With UAGUGACACACCUUGUCUGAGAGAUAAACA the “pre-steady-state target cleavage rate” value was 0.0203 ± 0.0084.
UAGUGUGUCACCUAGUCUGAGAGAUUAACA was tested, and the “pre-steady-state target cleavage rate” value was 0.0886 ± 0.0072.
UAGUGACAGUCGUUCUCUGAGAGAUUAAGA was tested, and the “pre-steady-state target cleavage rate” value was 0.0077 ± 0.0032.
With UAGUGACAGUGGUUCUCUGAAGAUUAACA the “pre-steady-state target cleavage rate” value was under 0.0001.
With UAGUGAGUCACCUUCUCUCUGAGAUUAACA the “pre-steady-state target cleavage rate” value was 0.0118 ± 0.0043.
UAGUGACAGUCCUUCUCAGUGAGAUUAACA was tested, and the “pre-steady-state target cleavage rate” value was 0.00428 ± 0.0026.
In the case of UAGUGACUCACCUUCUCUGAGAGAUCUAACA, the “pre-steady-state target cleavage rate” value is reported as 0.208 ± 0.049.
With UAGUGACUGAGCUUCUCUGAGAGAUUAACA the “pre-steady-state target cleavage rate” value was 0.091 ± 0.0066.
For UAGUGACAGUGCUUCUUUGAGAGAUUAACA, the “pre-steady-state target cleavage rate” value was 0.0343 ± 0.0055.
For UAGUGACUCACCUUCUAUGAGAGAUUAACA, the “pre-steady-state target cleavage rate” value was 0.0743 ± 0.012.
For UAGUGACUCACCUUCUCUGAGAGAUAAAGA, the “pre-steady-state target cleavage rate” value was 0.00864 ± 0.0049.
In the case of UAGUGUGUCACCAACUCUGAGAGAUUAACA, the “pre-steady-state target cleavage rate” value is reported as 0.161 ± 0.011.
In the case of UAGUGACAGUCCUUCUCUGAGAGGAUUAACA, the “pre-steady-state target cleavage rate” value is reported as 0.0433 ± 0.0062.
UAGUGAGUCACGUUCUCUGAGAGUUUAACA was tested, and the “pre-steady-state target cleavage rate” value was 0.0729 ± 0.013.
For UAGUCUGUCACCUUACUCUGAGAGAUUAACA, the “pre-steady-state target cleavage rate” value was 0.176 ± 0.011.
For UAGUGACAGUGGAAGAGACAGUGAUUUACA, the “pre-steady-state target cleavage rate” value was under 0.0001.
For UAGUCUGUCACCUUCUCUGAGUAGAUUAACA, the “pre-steady-state target cleavage rate” value was 0.00795 ± 0.0031.
UAGUGACACACCUUCUCUGAAGAGAUUAACA was tested, and the “pre-steady-state target cleavage rate” value was 0.00548 ± 0.0031.
For UAGUGACAGUGGUUCUGCUGAGAGAUUAACA, the “pre-steady-state target cleavage rate” value was under 0.0001.
UAGUCUCUCACCUUCUCUGAGAGAUUUACA was tested, and the “pre-steady-state target cleavage rate” value was 0.0472 ± 0.013.
With UAGUGACAGUGGAUCUCUCAGAGUUUAACA the “pre-steady-state target cleavage rate” value was under 0.0001.
For UAGUGACAGUCCCUCUCUGAGAGAUUAACA, the “pre-steady-state target cleavage rate” value was 0.0482 ± 0.0093.
With UAGUGAGUCACGUUCUCUGAGAGAUUAACA the “pre-steady-state target cleavage rate” value was 0.161 ± 0.019.
With UAGUGAGUCACCUACUCUGAGAGAUUAUCA the “pre-steady-state target cleavage rate” value was 0.104 ± 0.028.
UAGUGAGUCUCCUUCUCUGAGAGAUUAACA was tested, and the “pre-steady-state target cleavage rate” value was 0.136 ± 0.017.
For UAGUGACUCACCUUCUCUGAGAGAUUAAUCA, the “pre-steady-state target cleavage rate” value was 0.14 ± 0.028.
UAGUGAGUCACCUUCUCUGAGAGAUAUUCA was tested, and the “pre-steady-state target cleavage rate” value was 0.0659 ± 0.026.
For UAGUGACAGUCCUACUCUGAGAGAUUAUCA, the “pre-steady-state target cleavage rate” value was 0.00536 ± 0.0017.
For UAGUCUGACACCUUCUCUGAGAGUUUAACA, the “pre-steady-state target cleavage rate” value was 0.109 ± 0.016.
For UAGUGUGUCACCUUCUCUGAGACUUUAACA, the “pre-steady-state target cleavage rate” value was 0.0999 ± 0.028.
UAGUGACACACCUUCUCACAGAGAUUAACA was tested, and the “pre-steady-state target cleavage rate” value was 0.0124 ± 0.0065.
